Results reported in PubChem BioAssay AID588453 (National Center for Advancing Translational Sciences (NCATS), 2011).
Several values for one entry are separate records, joined by “and”; a condition that tells them apart may be missing. Identical values can stand only once. The campaign covered roughly 390,000 compounds. About 4,000 (1%) were called active. The shares of active, inactive and inconclusive entries below differ from those in the screen. The call rests on the fitted dose curve; in most records, active means well fitted inhibition curve with a large enough effect; inconclusive means small, poorly fitted or top-dose-only effect; inactive means no such curve, though single readings can be large or run the other way. Potencies beside an inconclusive call are fits to weak or partial responses and may not hold up.

target: Thioredoxin reductase 1, cytoplasmic (Rattus norvegicus) (UniProt O89049); assay: qHTS Assay for Inhibitors of Mammalian Selenoprotein Thioredoxin Reductase 1 (TrxR1): qHTS; details: recombinant rTrxR1, NADPH fluorescence consumption, selenite substrate; series mostly up to 114 µM; activity change, negative = inhibition: at the top concentration; further: nearly all actives have a fitted effect of over 65% in size
Chain of UniProt O89049 (O89049 whole entry, looked up): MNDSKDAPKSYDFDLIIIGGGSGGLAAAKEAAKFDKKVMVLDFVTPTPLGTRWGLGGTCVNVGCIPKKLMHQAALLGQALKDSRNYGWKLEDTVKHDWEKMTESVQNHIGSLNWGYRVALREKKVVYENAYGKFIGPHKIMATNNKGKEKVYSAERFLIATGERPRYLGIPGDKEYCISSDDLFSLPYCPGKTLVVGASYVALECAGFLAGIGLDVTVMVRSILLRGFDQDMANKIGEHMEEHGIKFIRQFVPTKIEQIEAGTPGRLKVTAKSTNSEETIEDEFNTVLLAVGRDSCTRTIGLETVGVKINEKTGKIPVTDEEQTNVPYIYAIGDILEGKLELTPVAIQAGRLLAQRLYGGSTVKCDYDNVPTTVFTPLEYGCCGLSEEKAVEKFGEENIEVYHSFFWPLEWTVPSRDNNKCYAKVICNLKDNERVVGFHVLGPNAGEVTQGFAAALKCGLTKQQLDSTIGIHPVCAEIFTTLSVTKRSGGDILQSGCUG
Summary of the method: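 Rat TrxR1 (90 nM in the dispensed reagent) was pre-reduced with 400 uM NADPH for 5 min at room temperature, then incubated with compound for 15 min. After 400 uM selenite was added, NADPH fluorescence (Ex 340/Em 450 nm) was followed for 8 min.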
On the % scale 0 is the no-effect control and ±100 the full control effect; potency means the concentration at half of the fitted maximal effect; tags describe the fitted curve by direction and shape.

SMILES | activity change, negative = inhibition | Potency
CCOc1cccc2c1Oc1nc(-c3ccccc3)nc(SCC(=O)Nc3ccc(F)cc3)c1C2 | inactive: 17.6% | –
COc1cc(/C=N/N(C)C)ccc1OC(=O)c1cccs1 | – | inconclusive: 35.5 µM [inhibitor, partial curve, poor fit]
CC(C)(C)c1cc(CN(CCO)CCO)cc(C(C)(C)C)c1O | – | active: 3.55 µM
Cc1ccc(N2CC(C(=O)Nc3ncc([N+](=O)[O-])s3)CC2=O)cc1 (stereo not drawn) | inactive: -9.64% | –
O=c1/c(=C/c2ccc(CNS(=O)(=O)c3ccccc3)o2)sc2n1CCN=2 | – | inconclusive: 22.4 µM [inhibitor, single point]
Cc1cc(NC(=S)NC(=O)c2ccco2)c2ccccc2n1 | – | inconclusive: 11.2 µM [inhibitor, partial curve]
COc1ccc(-c2ccccc2C2C3C=CCCC3(C)C(=O)N2Cc2ccccc2)cc1 (stereo not drawn) | – | inconclusive: 22.4 µM [inhibitor, single point]
Nc1nc(C(=O)N2CCOCC2)nn1C(=O)c1ccc(Cl)cc1 | – | inconclusive: 17.8 µM [inhibitor, partial curve]
Cc1ccc(-c2ccc(C(=O)NCCCNC(=O)c3cnccn3)o2)cc1Cl | – | inconclusive: 79.4 µM [inhibitor, partial curve]
COc1ccc(C(=O)CCNc2ccc3c(c2)OCCO3)cc1 | – | inconclusive: 50.1 µM [inhibitor, partial curve, poor fit]
CCCCCCC(=O)N1C/C=C\C(c2ccc(OC)cc2)N(Cc2ccc(F)cc2)C(=O)C1Cc1ccccc1 (stereo not drawn) | inactive: -5.98% | –
CCOc1ccc(-c2nnc(SCC(=O)Nc3ccc(C)cc3Cl)o2)cc1 | – | inconclusive: 35.5 µM [inhibitor, full curve, poor fit]
NC(=O)COc1ccc2cc(-c3ccc(F)cc3)c(=O)oc2c1 | – | inconclusive: 20 µM [inhibitor, full curve]
O=C(O)c1cccc(NC(=S)NC(=O)c2cncc(Br)c2)c1 | – | inconclusive: 35.5 µM [inhibitor, full curve, poor fit]
CC(=O)N1CCc2cc(C(=O)CN3CCN(c4ccccc4F)CC3)ccc21 | – | inconclusive: 15.8 µM [inhibitor, partial curve]
Cc1ccc(CCNC(=O)c2cc3n(n2)CCCN(Cc2ccc(C)cc2)C3=O)cc1 | inactive: 2.74% [at 57.1 µM] | –
CC(=O)O[C@]1(C(C)=O)CC[C@H]2C3C=C(Cl)C4=CC(=O)[C@@H]5C[C@H]5[C@]4(C)C3CC[C@@]21C (stereo partly drawn) | – | inconclusive: 2 µM [inhibitor, full curve]
Cc1cc(C)c(S(=O)(=O)N2CCC(N3CCN(Cc4ccccc4)C(=O)C3=O)CC2)c(C)c1 | inactive: 18.5% [at 57.1 µM] | –
O=C(CSc1cn(CCNC(=O)c2c(F)cccc2F)c2ccccc12)Nc1ccc(F)cc1 | inactive: 0.446% | –
CCOC(=O)C1=C(C)NC(C)=C(C(=O)OC)C1c1cccc([N+](=O)[O-])c1 (stereo not drawn) | – | inconclusive: 31.6 µM [inhibitor, full curve, poor fit] and inconclusive: 10 µM [inhibitor, partial curve]
COC(=O)C1=NN(c2ccc(Cl)cc2)C2C(=O)N(c3ccccc3OC)C(=O)C12 (stereo not drawn) | – | inconclusive: 89.1 µM [inhibitor, single point]
Cc1nc2nc(NC(=O)CC(C)C)[nH]n2c(=O)c1Cc1ccccc1 | inactive: 15.1% | –

SMILES | activity change, negative = inhibition | Potency
COc1ccc(N(C(=O)CCl)C(C(=O)NC2CCCCC2)c2cccnc2)cc1 (stereo not drawn) | – | active: 15.8 µM
CCN(c1cccc(C)c1)S(=O)(=O)c1nnc(NC(=O)c2ccco2)s1 | – | inconclusive: 44.7 µM [inhibitor, partial curve]
CC(C)c1ccc(C2NC(C(=O)O)CS2)cc1 (stereo not drawn) | inactive: 45.5% | –
O=S(=O)(c1ccc(Br)cc1)c1nnn2c1nc(NCc1ccc3c(c1)OCO3)c1sccc12 | inactive: 31.4% | –
COc1ccc(CS(=O)(=O)/C(Cl)=C(/Cl)C(=O)Nc2ccc(OC)nc2)cc1 | – | inconclusive: 2.24 µM [inhibitor, full curve, poor fit]
O=C(Nc1ccc2ccccc2c1)c1nc(S(=O)(=O)Cc2ccccc2F)ncc1Cl | – | active: 10 µM
Cc1cc2cc(CNC(=O)c3ccc(Br)o3)ccc2n1C | – | active: 8.91 µM
Oc1cccc(N2Cc3ccccc3C2)c1 | – | inconclusive: 50.1 µM [inhibitor, partial curve]
Cc1nc2c(OCc3ccccc3)cccn2c1CC#N | – | inactive and inconclusive: 37.7 µM [inhibitor, single point]
CCCCOC(=O)c1ccc(-c2ccc(/C=N/NC(=S)NCC)o2)cc1 | inactive: 2.4% [at 57.1 µM] | –
Cc1[nH]c2ccccc2c1C(Nc1nccs1)c1ccncc1 (stereo not drawn) | – | inconclusive: 50.1 µM [inhibitor, single point]
Cc1cc(C)cc(NC(=S)NC(=O)CCN2C(=O)c3ccccc3C2=O)c1 | – | inconclusive: 56.2 µM [inhibitor, partial curve, poor fit]
COc1ccc(/C=C2\N=C(C)OC2=O)cc1[N+](=O)[O-] | – | inconclusive: 14.1 µM [inhibitor, partial curve]
CC(C)C1=C2CCCCC2NC(=O)N1 (stereo not drawn) | – | inconclusive: 39.8 µM [inhibitor, partial curve]
COC(=O)c1ccc(-n2c(CCC(=O)O)ccc2-c2ccccc2)cc1 | – | inconclusive: 70.8 µM [inhibitor, partial curve]
CCOP(=O)(Nc1cccc2oc(=O)c3ccccc3c12)OCC | – | inconclusive: 50.1 µM [inhibitor, single point]
COCCn1c(=NC(=O)CCS(=O)(=O)c2ccccc2)sc2cc(C)ccc21 | – | active: 39.8 µM
O=C1CCC(=O)N1CCC(c1ccc(F)cc1)c1ccco1 (stereo not drawn) | – | inconclusive: 44.7 µM [inhibitor, partial curve]
CN(C)c1ccc(N=Cc2cccc3ccccc23)cc1 | – | inconclusive: 39.8 µM [inhibitor, partial curve]
O=C(CS(=O)(=O)Cc1ccccc1)N1CCc2ccccc2C1 | – | inconclusive: 79.4 µM [inhibitor, single point]
Nc1ccc(N2CCCCC2)cc1N1CCCCC1 | – | inconclusive: 31.6 µM [inhibitor, single point]
